Earlier results in US5824072A, “Biocompatible ocular implants” (Oculex Pharmaceuticals, Inc., priority 1996, dated 1998).

Tested on: VX2 adenocarcinoma
Settings: cited from earlier work

In the case of `CC[C@]1(O)C[C@H]2CN(CCc3c([nH]c4ccccc34)[C@@](C(=O)OC)(c3cc4c(cc3OC)N(C=O)[C@H]3[C@@](O)(C(=O)OC)[C@H](OC(C)=O)[C@]5(CC)C=CCN6CC[C@]43[C@@H]65)C2)C1` [Vincristine], the “in vitro IC50” value is given as 2 to 3 ng/mL.
